Some of the results follow.
B1: PhoQ; a variant is named by its letters at X, in order, P23837 (parent)
chain: MKKLLRLFFPLSLRVRFLLATAAVVLVLSLAYGMVALIGYSVSFDKTTFRLLRGESNLFYTLAKWENNKLHVELPENIDKQSPTMTLIYDENGQLLWAQRDVPWLMKMIQPDWLKSNGFHEIEADVNDTSLLLSGDHSIQQQLQEVREDDDDAEMTHSVAVNVYPATSRMPKLTIVVVDTIPVELKSSYMVWSWFIYVLSANLLLVIPLLWVAAWWSLRPIEALAKEVRELEEHNRELLNPATTRELTSLVRNLNRLLKSERERYDKYRTTLTDLTHSLKTPLXXLQXXLRSLRSEKMSVSDAEPVMLEQISRISQQIGYYLHRASMRGGTLLSRELHPVAPLLDNLTSALNKVYQRKGVNISLDISPEISFVGEQNDFVEVMGNVLDNACKYCLEFVEISARQTDEHLYIVVEDDGPGIPLSKREVIFDRGQRVDTLRPGQGVGLAVAREITEQYEGKIVAGESMLGGARMEVIFGRQHSAPKDE

Variants of: B1
Assay: enrichment ratio after two sorts for PhoP signalling (ratio (wild type AVST 3.29)); higher = more functional
Details: with PhoP (E. coli)

| Variant | enrichment ratio |
| --- | --- |
| TQRH | ≤ 0.25 |
| GHFW | ≤ 0.25 |
| ASHI | ≤ 0.25 |
| DYVS | ≤ 0.25 |
| VVQH | ≤ 0.25 |
| AKQV | ≤ 0.25 |
| WWSF | ≤ 0.25 |
| MGCP | ≤ 0.25 |
| LVRP | ≤ 0.25 |
| PHCK | ≤ 0.25 |
| ERYN | ≤ 0.25 |
| WPDM | ≤ 0.25 |
| WSIE | ≤ 0.25 |
| NPFW | ≤ 0.25 |
| MVWT | ≤ 0.25 |
| KRCN | ≤ 0.25 |
| SFEL | ≤ 0.25 |
| YRML | ≤ 0.25 |
| IPDN | ≤ 0.25 |
| VKRA | ≤ 0.25 |
| DKIH | ≤ 0.25 |
| RGLM | ≤ 0.25 |
| STSW | ≤ 0.25 |
| RSQY | ≤ 0.25 |

| Variant | enrichment ratio |
| --- | --- |
| AHKA | ≤ 0.25 |
| DPMF | ≤ 0.25 |
| GRNN | ≤ 0.25 |
| QIFC | ≤ 0.25 |
| WDPT | ≤ 0.25 |
| RGTI | ≤ 0.25 |
| YFRV | ≤ 0.25 |
| VLVG | ≤ 0.25 |
| NLQW | ≤ 0.25 |
| SDFW | ≤ 0.25 |
| PTPY | ≤ 0.25 |
| VFNV | ≤ 0.25 |
| LHAC | ≤ 0.25 |
| VMSK | ≤ 0.25 |
| EQLD | ≤ 0.25 |
| WLHM | ≤ 0.25 |
| QCKT | ≤ 0.25 |
| DDQA | ≤ 0.25 |
| DSTG | ≤ 0.25 |
| FHGC | ≤ 0.25 |
| ANHC | ≤ 0.25 |
| WIGL | ≤ 0.25 |
| PVII | ≤ 0.25 |
| DTWS | ≤ 0.25 |

| Variant | enrichment ratio |
| --- | --- |
| NDSD | ≤ 0.25 |
| HNLV | ≤ 0.25 |
| EVFY | ≤ 0.25 |
| RSRM | ≤ 0.25 |
| IAHP | ≤ 0.25 |
| NNMS | ≤ 0.25 |
| PRDW | ≤ 0.25 |
| ALKV | ≤ 0.25 |
| PAVH | ≤ 0.25 |
| YCNS | ≤ 0.25 |
| EVTI | ≤ 0.25 |
| IPWK | ≤ 0.25 |
| LGRH | ≤ 0.25 |
| MCKS | ≤ 0.25 |
| SWIA | ≤ 0.25 |
| NCPV | ≤ 0.25 |
| IHVF | ≤ 0.25 |
| WMTD | ≤ 0.25 |
| YNCH | ≤ 0.25 |
| MGKK | ≤ 0.25 |
| HLDR | ≤ 0.25 |
| TKPF | ≤ 0.25 |
| LLWT | ≤ 0.25 |
| HHMY | ≤ 0.25 |

| Variant | enrichment ratio |
| --- | --- |
| HRKE | ≤ 0.25 |
| KCAV | ≤ 0.25 |
| AISP | ≤ 0.25 |
| YQSQ | ≤ 0.25 |
| TYMP | ≤ 0.25 |
| MMGQ | ≤ 0.25 |
| QNWW | ≤ 0.25 |
| RLVE | ≤ 0.25 |
| TAES | ≤ 0.25 |
| QLGP | ≤ 0.25 |
| PKHR | ≤ 0.25 |
| FFKP | ≤ 0.25 |
| GSKV | ≤ 0.25 |
| HLYS | ≤ 0.25 |
| DPCT | ≤ 0.25 |
| MYMA | ≤ 0.25 |
| ETQD | ≤ 0.25 |
| LNPN | ≤ 0.25 |
| WYAF | ≤ 0.25 |
| YYEH | ≤ 0.25 |
| LDMS | ≤ 0.25 |
| LPPK | ≤ 0.25 |
| PKNR | ≤ 0.25 |
| VSEM | ≤ 0.25 |

| Variant | enrichment ratio |
| --- | --- |
| YAAW | ≤ 0.25 |
| KSVL | ≤ 0.25 |
| IILL | 1.2 |
| DWMI | ≤ 0.25 |
| FSQR | ≤ 0.25 |
| SASQ | 9.12 |
| HEGH | ≤ 0.25 |
| RLCY | ≤ 0.25 |
| MFKI | ≤ 0.25 |
| TMYR | ≤ 0.25 |
| GVMY | ≤ 0.25 |
| ESGC | ≤ 0.25 |
| LKKY | ≤ 0.25 |
| YRRT | ≤ 0.25 |
| HDYT | ≤ 0.25 |
| PMNF | ≤ 0.25 |
| QYPV | ≤ 0.25 |
| EPYT | ≤ 0.25 |
| LWIL | ≤ 0.25 |
| TWCM | ≤ 0.25 |
| FKML | ≤ 0.25 |
| NDQD | ≤ 0.25 |
| KQLH | ≤ 0.25 |
| ARCF | ≤ 0.25 |

| Variant | enrichment ratio |
| --- | --- |
| PSMG | ≤ 0.25 |
| SRYR | ≤ 0.25 |
| WLSD | ≤ 0.25 |
| HRNT | ≤ 0.25 |
| SVLS | 4.64 |
| PFVR | ≤ 0.25 |
| MPIM | ≤ 0.25 |
| GKIS | ≤ 0.25 |
| MNTM | 18.9 |
| WWTR | ≤ 0.25 |
| TNCI | ≤ 0.25 |
| KYSC | ≤ 0.25 |
| MEAS | 3.94 |
| MAHS | ≤ 0.25 |
| APHK | ≤ 0.25 |
| WFKC | ≤ 0.25 |
| PAKN | ≤ 0.25 |
| QICK | ≤ 0.25 |
| MHGE | ≤ 0.25 |
| VKCN | ≤ 0.25 |
| GNED | ≤ 0.25 |
| WCMP | ≤ 0.25 |
| WQSQ | ≤ 0.25 |
| GPLG | ≤ 0.25 |

| Variant | enrichment ratio |
| --- | --- |
| WFRF | ≤ 0.25 |
| QTKR | ≤ 0.25 |
| TGDR | 0.31 |
| FIDT | ≤ 0.25 |
| QDYT | ≤ 0.25 |
| KNIV | ≤ 0.25 |
| SWAA | ≤ 0.25 |
| WYDN | ≤ 0.25 |
| GAWL | ≤ 0.25 |
| HKSC | ≤ 0.25 |
| DQNG | ≤ 0.25 |
| FTCR | ≤ 0.25 |
| AEAW | ≤ 0.25 |
| GPRY | ≤ 0.25 |
| KSTW | ≤ 0.25 |
| NREV | ≤ 0.25 |
| ACAQ | ≤ 0.25 |
| DNHA | ≤ 0.25 |
| PQSP | ≤ 0.25 |
| TRLK | ≤ 0.25 |
| FEIR | ≤ 0.25 |
| TYID | ≤ 0.25 |
| WNMR | ≤ 0.25 |
| LGPW | ≤ 0.25 |

| Variant | enrichment ratio |
| --- | --- |
| QDMR | ≤ 0.25 |
| WRGM | ≤ 0.25 |
| NTYQ | ≤ 0.25 |
| YHMR | ≤ 0.25 |
| HQWN | ≤ 0.25 |
| IFAS | ≤ 0.25 |
| CCSS | ≤ 0.25 |
| NDIT | ≤ 0.25 |
| NVNH | ≤ 0.25 |
| ERSN | ≤ 0.25 |
| GDIM | 10.5 |
| SSCV | 18.4 |
| NTPE | ≤ 0.25 |
| KIQR | ≤ 0.25 |
| LSLG | 1.47 |
| YLLS | 1.31 |
| ANKF | ≤ 0.25 |
| ASHE | ≤ 0.25 |
| DIID | ≤ 0.25 |
| GPDL | ≤ 0.25 |
| FAYV | ≤ 0.25 |
| QMLW | ≤ 0.25 |
| MYCP | ≤ 0.25 |
| PHAC | ≤ 0.25 |

| Variant | enrichment ratio |
| --- | --- |
| ICDM | ≤ 0.25 |
| LKNH | ≤ 0.25 |
| EHQD | ≤ 0.25 |
| CYFR | ≤ 0.25 |
| CGTL | ≤ 0.25 |
| NRTC | ≤ 0.25 |
| YPRK | ≤ 0.25 |
| LHNV | ≤ 0.25 |
| PDMP | ≤ 0.25 |
| DDGA | ≤ 0.25 |
| ECRW | ≤ 0.25 |
| DTGG | ≤ 0.25 |
| DVMT | ≤ 0.25 |
| MQTV | 3.21 |
| GSMY | 3.19 |
| YPAF | ≤ 0.25 |
| GMRW | ≤ 0.25 |
| SCSF | 9.85 |
| FGSA | ≤ 0.25 |
| FERD | ≤ 0.25 |
| QKAR | ≤ 0.25 |
| KHIH | ≤ 0.25 |
| LYGE | ≤ 0.25 |
| WKDT | ≤ 0.25 |

| Variant | enrichment ratio |
| --- | --- |
| WEEA | ≤ 0.25 |
| PKHQ | ≤ 0.25 |
| DHML | ≤ 0.25 |
| YFRW | ≤ 0.25 |
| NERD | ≤ 0.25 |
| DWTW | ≤ 0.25 |
| NDNI | ≤ 0.25 |
| KLHS | ≤ 0.25 |
| YNCC | ≤ 0.25 |
| YMHW | ≤ 0.25 |
| VRSC | ≤ 0.25 |
| PMCM | ≤ 0.25 |
| GQPI | ≤ 0.25 |
| KCIS | ≤ 0.25 |
| PGAM | ≤ 0.25 |
| GIDG | ≤ 0.25 |
| SPVE | ≤ 0.25 |
| QTCH | ≤ 0.25 |
| NIYW | ≤ 0.25 |
| IYLY | ≤ 0.25 |
| VLMI | ≤ 0.25 |
| SIRP | 0.347 |
| YTHR | ≤ 0.25 |
| LWED | ≤ 0.25 |

| Variant | enrichment ratio |
| --- | --- |
| VACR | ≤ 0.25 |
| SWYT | ≤ 0.25 |
| SCYH | ≤ 0.25 |
| IWQQ | ≤ 0.25 |
| INFT | ≤ 0.25 |
| MYHY | ≤ 0.25 |
| TCWY | ≤ 0.25 |
| IFCA | ≤ 0.25 |
| MSWH | 0.619 |
| ETCL | ≤ 0.25 |
| WKEW | ≤ 0.25 |
| FPCF | ≤ 0.25 |
| SQKM | ≤ 0.25 |
| MQSR | ≤ 0.25 |
| MFDT | ≤ 0.25 |
| ANNS | 12.9 |
| MENI | ≤ 0.25 |
| LTHE | ≤ 0.25 |
| AESQ | 4.68 |
| ENLR | ≤ 0.25 |
| AHYC | ≤ 0.25 |
| LRTW | ≤ 0.25 |
| QDGE | ≤ 0.25 |
| IRMH | ≤ 0.25 |

| Variant | enrichment ratio |
| --- | --- |
| IQVQ | ≤ 0.25 |
| PNQF | 1.11 |
| WRPA | ≤ 0.25 |
| TPQS | ≤ 0.25 |
| FYCS | ≤ 0.25 |
| FMMM | 0.302 |
| DHNE | ≤ 0.25 |
| RADN | ≤ 0.25 |
| TKHI | ≤ 0.25 |
| HVNF | ≤ 0.25 |
| FRQL | ≤ 0.25 |
| QKPW | ≤ 0.25 |
| RYLN | ≤ 0.25 |
| DAQP | ≤ 0.25 |
| SAHC | ≤ 0.25 |
| RCEL | ≤ 0.25 |
| DTRC | ≤ 0.25 |
| LQSP | ≤ 0.25 |
| FNFT | ≤ 0.25 |
| PMAY | ≤ 0.25 |
| PYWC | ≤ 0.25 |
| SNTA | 2.79 |
| AEWR | ≤ 0.25 |
| PSFE | ≤ 0.25 |

| Variant | enrichment ratio |
| --- | --- |
| QDDH | ≤ 0.25 |
| PNRG | ≤ 0.25 |
| DELQ | ≤ 0.25 |
| QYDK | ≤ 0.25 |
| WFNT | ≤ 0.25 |
| FIHR | ≤ 0.25 |
| SEQS | 6.91 |
| WTTF | ≤ 0.25 |
| VAMY | ≤ 0.25 |
| LPMT | ≤ 0.25 |
| EQIH | ≤ 0.25 |
| NHVP | ≤ 0.25 |
| VMNA | ≤ 0.25 |
| DFVV | ≤ 0.25 |
| LAYR | ≤ 0.25 |
| MEYG | 9.72 |
| QAHP | ≤ 0.25 |
| AHYI | ≤ 0.25 |

Source: a collection of fitness landscapes (doi:10.1126/science.1257360)
